The supplement of paper PMC12217912
This is one part of the list. Sequences were assembled here from the parent chain. Inactive controls read about 0.05.

B1: TEV protease; numbered along this chain (parent)
chain: MGESLFKGPRDYNPISSSICHLTNESDGHTTSLYGIGFGPFIITNKHLFRRNNGTLVVQSLHGVFKVKDTTTLQQHLVDGRDMIIIRMPKDFPPFPQKLKFREPQREERICLVTTNFQTKSMSSMVSDTSCTFPSGDGIFWKHWIQTKDGQCGSPLVSTRDGFIVGIHSASNFTNTNNYFTSVPKNFMELLTNQEAQQWVSGWRLNADSVLWGGHKVFMVKPEEPFQPVKEATQL

Variants of: B1
Assay: raw area under fraction-flipped curve 0-4 h after induction (AUC4h, not background-subtracted), DNA-recorder readout of cleavage of the substrate (dimensionless); higher = more cleavage of the substrate by the protease variant
Details: temperature: 34 °C; time window: 0-4 h after rhamnose induction
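Note: Bxb1 expression induced with 0.2% (w/v) L-rhamnose at OD600 near 0.5, cultures sampled hourly, flipped fraction per protease–substrate barcode pair counted by paired-end Illumina sequencing.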

Variant	area with substrate ENLYFES	area with substrate ENLYFFS	area with substrate ENLYFHS	area with substrate ENLYFIS	area with substrate ENLYFKS	area with substrate ENLYFMS	area with substrate ENLYFRS	area with substrate ENLYFSS	area with substrate ENLYFWS	area with substrate ENLYFGS
MGESLFKGPRDYNPISSSICHLTNESDGHTTSLYGIGFGPFIITNKHLFRRNNGTLVVQSLHGVFKVKDTTTLQQHLVDGRDMIIIRMPKDFPPFPQKLKFREPQREERICLVTTNFQTKSMSSMVSDTSCTFPSGDGIFWKHWIQTKDGQCGSPLVSTRDGFIVGIHSASNFTNTNNYFTSVPKNFMELLTNQEAQQWVSGWRLNADSVLWGGHKVYMVKPEEPFQPVKEATQL [F218Y]	0.0574	0.0559	0.0804	0.0483	0.0689	0.0502	0.0635	0.0574	0.0591	–
MGESLFKGPRDYNPISSSICHLTNESDGHVTSLYGIGFGPFIITNKHLFRRNNGTLVVQSLHGVFKVKDTTTLQQHLVDGRDMIIIRMPKDFPPFPQKLKFREPQREERICLVTTNFQTKSMSSMVSDTSCTFPSGDGIFWKHWIQTKDGQCGSPLVSTRDGFIVGIHSASNFTNTNNYFTSVPKNFMELLTNQEAQQWVSGWRLNADSVLWGGHKVFMVKPEEPFQPVKEATQL [T30V]	0.0672	0.0577	0.0672	0.0464	–	–	–	–	0.0587	0.0388
MGESLFKGPRDYNPISSSICHLTNESDGHTTSLYGIGDGPFIITNKHLFRRNNGTLVVQSLHGVFKVKDTTTLQQHLVDGRDMIIIRMPKDFPPFPQKLKFREPQREERICLVTTNFQTKSMSSMVSDTSCTFPSGDGIFWKHWIQTKDGQCGSPLVSTRDGFIVGIHSASNFTNTNNYFTSVPKNFMELLTNQEAQQWVSGWRLNADSVLWGGHKVFMVKPEEPFQPVKEATQL [F38D]	0.0277	–	–	–	–	–	0.0394	–	–	–
MGESLFKGPRDYNPISSSICHLTNESDGHTTSLYGIGFGPFIITNKHLFRRNNGTLVVQSLHGVFKVKDTITLQQHLVDGRDMIIIRMPKDFPPFPQKLKFREPQREERICLVTTNFQTKSMSSMVSDTSCTFPSGDGIFWKHWIQTKDGQCGSPLVSTRDGFIVGIHSASNFTNTNNYFTSVPKNFMELLTNQEAQQWVSGWRLNADSVLWGGHKVFMVKPEEPFQPVKEATQL [T71I]	0.0528	–	–	–	0.0556	–	0.0457	0.065	0.04	–
MGESLFKGPRDYNPISSSICHLTNESDGHTTSLYGIGFGPFIITNKHLFRRNNGTLVVQSLHGVFKVKDTTTLQQHLVDGRDMIIIRMPKDFPPFPQKLKFREQQREERICLVTTNFQTKSMSSMVSDTSCTFPSGDGIFWKHWIQTKDGQCGSPLVSTRDGFIVGIHSASNFTNTNNYFTSVPKNFMELLTNQEAQQWVSGWRLNADSVLWGGHKVFMVKPEEPFQPVKEATQL [P104Q]	0.0531	–	0.0416	–	0.0305	0.0537	–	–	0.0381	0.0408
MGESLFKGPRDYNPISSSICHLTNESDGHTTSLYGIGFGPFIITNKHLFRRNNGTLVVQSLHGVFKVKDTTTLQQHLVDGRDMIIIRMPKDFPPFPQKLKFREPQREERICLVTTNFQTKSMSSMVSDTSCTFPSGDGIFWKHWPQTKDGQCGSPLVSTRDGFIVGIHSASNFTNTNNYFTSVPKNFMELLTNQEAQQWVSGWRLNADSVLWGGHKVFMVKPEEPFQPVKEATQL [I145P]	0.0563	–	0.0532	–	–	–	0.0548	–	0.0815	–
MGESLFKGPRDYNPISSSICHLTNESDGHTTSLYGIGFGPFIITNKHLFRRNNGTLVVQSLHGVFKVKDTTTLQQHLVDGRDMIIIRMPKDFPPFPQKLKFREPQREERICLVTTNFQTKSMSSMVSDTSCTFPSGDGIFWKHWIQTKDGQCGSPLVSTRDGFIVGIHSASNRTNTNNYFTSVPKNFMELLTNQEAQQWVSGWRLNADSVLWGGHKVFMVKPEEPFQPVKEATQL [F173R]	0.0774	–	–	–	0.0693	0.051	–	–	0.0466	–
MGESLFKGPRDYNPISSSICHLTNESDGHTTSLYGIGFGPFIITNKHLFRRNNGTLVVQSLHGVFKVKDTTTLQQHLVDGRDPIIIRMPKDFPPFPQKLKFREPQREERICLVTTNFQTKSMSSMVSDTSCTFPSGDGIFWKHWIQTKDGQCGSPLVSTRDGFIVGIHSASNFTNTNNYFTSVPKNFMELLTNQEAQQWVSGWRLNADSVLWGGHKVFMVKPEEPFQPVKEATQL [M83P]	0.0499	0.155	0.0497	–	0.0758	0.0501	–	–	–	0.0518
MGESLFIGPRDYNPISSSICHLTNESDGHTTSLYGIGFGPFIITNKHLFRRNNGTLVVQSLHGVFKVKDTTTLQQHLVDGRDMIIIRMPKDFPPFPQKLKFREPQREERICLVTTNFQTKSMSSMVSDTSCTFPSGDGIFWKHWIQTKDGQCGSPLVSTRDGFIVGIHSASNFTNTNNYFTSVPKNFMELLTNQEAQQWVSGWRLNADSVLWGGHKVFMVKPEEPFQPVKEATQL [K7I]	0.0573	0.0884	0.0533	0.0559	0.067	0.0728	–	–	–	–
MGESLFKGPRDYNPISSSICHLTNESDGHTTSLYGIGFGPFIITNKHLFRRNNGTLVVQSLHGVFKVKDTTTLQQHLVDGRDMIIIRMPKDFPPFPQKLKYREPQREERICLVTTNFQTKSMSSMVSDTSCTFPSGDGIFWKHWIQTKDGQCGSPLVSTRDGFIVGIHSASNFTNTNNYFTSVPKNFMELLTNQEAQQWVSGWRLNADSVLWGGHKVFMVKPEEPFQPVKEATQL [F101Y]	0.0505	–	–	0.0547	–	–	0.0558	–	0.0543	–
MGESLFKGPRDYNPISSSICHLTNESDGHTTSLYGIGFGPFIITNKHLFRRNNGTLVVQSLHGVFKVKDTTTLQQHLVDGRDMIIIRMPKDFPPFPQKLKFREPQREERICLVTTNFQTKSMSSMVSDTSCTFPSGDGIFWKHWIQTKDGQCGSPLVSTRDGFIVGIHSASNFTNTNNYFTSVPKNFMELLTNQEAQQWVSGWRLNADSVLWGGHKVFMVKPEEPFQAVKEATQL [P228A]	0.0641	–	–	–	–	–	–	–	0.0536	–

Same assay, conditions: temperature: 34 °C; time window: 0-4 h after rhamnose induction

Variant	area with substrate ENLYFLS	area with substrate ENLYFNS	area with substrate ENLYFPS	area with substrate ENLYFTS	area with substrate ENLYFVS	area with substrate ENLYFYS
MGESLFKGPRDYNPISSSICHLTNESDGHVTSLYGIGFGPFIITNKHLFRRNNGTLVVQSLHGVFKVKDTTTLQQHLVDGRDMIIIRMPKDFPPFPQKLKFREPQREERICLVTTNFQTKSMSSMVSDTSCTFPSGDGIFWKHWIQTKDGQCGSPLVSTRDGFIVGIHSASNFTNTNNYFTSVPKNFMELLTNQEAQQWVSGWRLNADSVLWGGHKVFMVKPEEPFQPVKEATQL [T30V]	0.0595	0.0696	0.0605	0.0619	0.0722	0.0511
MGESLFKGPRDYNPISSSICHLTNESDGHTTSLYGIGDGPFIITNKHLFRRNNGTLVVQSLHGVFKVKDTTTLQQHLVDGRDMIIIRMPKDFPPFPQKLKFREPQREERICLVTTNFQTKSMSSMVSDTSCTFPSGDGIFWKHWIQTKDGQCGSPLVSTRDGFIVGIHSASNFTNTNNYFTSVPKNFMELLTNQEAQQWVSGWRLNADSVLWGGHKVFMVKPEEPFQPVKEATQL [F38D]	–	–	–	0.0428	–	–
MGESLFKGPRDYNPISSSICHLTNESDGHTTSLYGIGFGPFIITNKHLFRRNNGTLVVQSLHGVFKVKDTITLQQHLVDGRDMIIIRMPKDFPPFPQKLKFREPQREERICLVTTNFQTKSMSSMVSDTSCTFPSGDGIFWKHWIQTKDGQCGSPLVSTRDGFIVGIHSASNFTNTNNYFTSVPKNFMELLTNQEAQQWVSGWRLNADSVLWGGHKVFMVKPEEPFQPVKEATQL [T71I]	–	–	0.0593	0.0469	–	–
MGESLFKGPRDYNPISSSICHLTNESDGHTTSLYGIGFGPFIITNKHLFRRNNGTLVVQSLHGVFKVKDTTTLQQHLVDGRDMIIIRMPKDFPPFPQKLKFREPQREERICLVTTNFQTKSMSSMVSDTSCTFPSGDGIFWKHWPQTKDGQCGSPLVSTRDGFIVGIHSASNFTNTNNYFTSVPKNFMELLTNQEAQQWVSGWRLNADSVLWGGHKVFMVKPEEPFQPVKEATQL [I145P]	–	0.0607	–	–	–	–
MGESLFKGPRDYNPISSSICHLTNESDGHTTSLYGIGFGPFIITNKHLFRRNNGTLVVQSLHGVFKVKDTTTLQQHLVDGRDMIIIRMPKDFPPFPQKLKFREPQREERICLVTTNFQTKSMSSMVSDTSCTFPSGDGIFWKHWIQTKDGQCGSPLVSTRDGFIVGIHSASNRTNTNNYFTSVPKNFMELLTNQEAQQWVSGWRLNADSVLWGGHKVFMVKPEEPFQPVKEATQL [F173R]	0.0617	–	0.057	–	–	0.0456
MGESLFKGPRDYNPISSSICHLTNESDGHTTSLYGIGFGPFIITNKHLFRRNNGTLVVQSLHGVFKVKDTTTLQQHLVDGRDPIIIRMPKDFPPFPQKLKFREPQREERICLVTTNFQTKSMSSMVSDTSCTFPSGDGIFWKHWIQTKDGQCGSPLVSTRDGFIVGIHSASNFTNTNNYFTSVPKNFMELLTNQEAQQWVSGWRLNADSVLWGGHKVFMVKPEEPFQPVKEATQL [M83P]	–	–	0.0451	0.0437	0.0459	0.0504
MGESLFIGPRDYNPISSSICHLTNESDGHTTSLYGIGFGPFIITNKHLFRRNNGTLVVQSLHGVFKVKDTTTLQQHLVDGRDMIIIRMPKDFPPFPQKLKFREPQREERICLVTTNFQTKSMSSMVSDTSCTFPSGDGIFWKHWIQTKDGQCGSPLVSTRDGFIVGIHSASNFTNTNNYFTSVPKNFMELLTNQEAQQWVSGWRLNADSVLWGGHKVFMVKPEEPFQPVKEATQL [K7I]	–	0.0633	–	–	0.0599	–
MGESLFKGPRDYNPISSSICHLTNESDGHTTSLYGIGFGPFIITNKHLFRRNNGTLVVQSLHGVFKVKDTTTLQQHLVDGRDMIIIRMPKDFPPFPQKLKYREPQREERICLVTTNFQTKSMSSMVSDTSCTFPSGDGIFWKHWIQTKDGQCGSPLVSTRDGFIVGIHSASNFTNTNNYFTSVPKNFMELLTNQEAQQWVSGWRLNADSVLWGGHKVFMVKPEEPFQPVKEATQL [F101Y]	–	–	–	0.0507	–	–
MGESLFKGPRDYNPISSSICHLTNESDGHTTSLYGIGFGPFIITNKHLFRRNNGTLVVQSLHGVFKVKDTTTLQQHLVDGRDMIIIRMPKDFPPFPQKLKFREPQREERICLVTTNFQTKSMSSMVSDTSCTFPSGDGIFWKHWIQTKDGQCGSPLVSTRDGFIVGIHSASNFTNTNNYFTSVPKNFMELLTNQEAQQWVSGWRLNADSVLWGGHKVFMVKPEEPFQAVKEATQL [P228A]	–	–	0.0601	0.0554	0.0613	–
